# Measurements taken from PMC7819943, “Rice protein-binding microarrays: a tool to detect cis-acting elements near promoter regions in rice”.
# This is one part of the list.
# Biological target: T1, OsWOX13 (Oryza sativa, UniProt Q5QMM3 1-267)
# T1 sequence: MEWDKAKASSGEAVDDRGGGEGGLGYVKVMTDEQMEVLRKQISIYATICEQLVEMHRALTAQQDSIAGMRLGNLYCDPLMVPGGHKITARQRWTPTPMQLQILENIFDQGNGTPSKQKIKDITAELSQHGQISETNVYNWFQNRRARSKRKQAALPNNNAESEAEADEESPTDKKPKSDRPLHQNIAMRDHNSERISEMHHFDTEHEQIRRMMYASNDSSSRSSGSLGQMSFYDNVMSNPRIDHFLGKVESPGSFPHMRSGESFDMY
# Experiment: protein-binding microarray (RPBM); PBS, 2% BSA, 51.3 ng/ul salmon testes DNA, 50 uM zinc acetate, 200 nM TF, 25 C, 1 h; high values mean tight binding
# Details: protein: recombinant; tags: N-terminal polyhistidine and DsRed monomer fusion (pET32a); label: CyDye5-dUTP incorporated in the synthesized complementary strand; 3' TTTTT single-stranded linker to array surface; dsDNA, one strand shown
# Procedure, shortened: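 Transcription factors were each fused at the N-terminus to a polyhistidine tag plus DsRed and expressed in E. coli BL21-CodonPlus before Ni–NTA purification. Binding to a double-stranded custom Agilent array was carried out with 200 nM protein at 25 °C for 1 h in PBS, 2% BSA, salmon testes DNA and 50 µM zinc acetate. The binding signal is per-feature fluorescence intensity, in arbitrary units, on an Axon 4000B scanner.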
row,Sequence,binding signal
1,ACTAATTTCATAACTCGCCTGGAAACCGCGAGACGAATCTCGGAGTCACCTAGTGCAG,5910 fluorescence intensity (a.u.)
2,TTACTAATTTTGGCTCATATTTCCAACACTAGGATGGTATCGGAGTCACCTAGTGCAG,6960 fluorescence intensity (a.u.)
3,GCTCAAATCAATTGTCTTATTATCGATTAAAAGGAGAAAACGGAGTCACCTAGTGCAG,5660 fluorescence intensity (a.u.)
4,CACCAAATTGTGCTAATCCTTGGCAGAACAGCTATGATGTCGGAGTCACCTAGTGCAG,5430 fluorescence intensity (a.u.)
5,CCTGATTGATGAAGAGCATGTTAAGTTCAGCAACATTCCTCGGAGTCACCTAGTGCAG,50800 fluorescence intensity (a.u.)
6,CAAACTTTTGATTTGCGTGTATGGATTTATGTATCTCCAACGGAGTCACCTAGTGCAG,10600 fluorescence intensity (a.u.)
7,CTCGTGATCAATCTCCACAAAACTATATTTGTTGAAATGACGGAGTCACCTAGTGCAG,5590 fluorescence intensity (a.u.)
8,GTTCGATTGGATCTGGGATTTATGCGACGACATGGTTTGACGGAGTCACCTAGTGCAG,5040 fluorescence intensity (a.u.)
9,CCAATTACTGATAATACGTCCAATTATACGTCAAATGGCGCGGAGTCACCTAGTGCAG,9400 fluorescence intensity (a.u.)
10,ATTGATGGAGGATATTCACTTGAAGGACTTACAAATGATCCGGAGTCACCTAGTGCAG,6290 fluorescence intensity (a.u.)
11,TTGATTAGAGAACTCTCTCTCTCTACCTGATTCGATTCGCCGGAGTCACCTAGTGCAG,16600 fluorescence intensity (a.u.)
12,TTTTAATCAATGGAAAGTAATTACTGTAAATTGTTTGACACGGAGTCACCTAGTGCAG,22700 fluorescence intensity (a.u.)
13,TGATTTAATTTGGGCATGGGTGGCCGAGTAGATCATTTTGCGGAGTCACCTAGTGCAG,4320 fluorescence intensity (a.u.)
14,TAGTTTAATTAGCTTAAGAACACGCCTTGTAGAGTGCTATCGGAGTCACCTAGTGCAG,14800 fluorescence intensity (a.u.)
15,GGTGCTATAACTGGTAATAATTTGCTTAGCTCCTGGTTTGCGGAGTCACCTAGTGCAG,13100 fluorescence intensity (a.u.)
16,CATAATATTTAATTAAACTAATTTAATGTTGTGAATATTACGGAGTCACCTAGTGCAG,17700 fluorescence intensity (a.u.)
17,TATACGTATGATTTATCGTATTAGAATATATTATATCCGGCGGAGTCACCTAGTGCAG,3850 fluorescence intensity (a.u.)
18,ATTATAACTGGTAATGGCCATTACCTGCCTTCACATTGCTCGGAGTCACCTAGTGCAG,8450 fluorescence intensity (a.u.)
19,TGGGGTTGTGCCAATCAAGCCCACTGATACATTGTTGTTCCGGAGTCACCTAGTGCAG,6360 fluorescence intensity (a.u.)
20,ATAAATAATAAATTCCAATTTCCAAACCCAAACCAAACCACGGAGTCACCTAGTGCAG,8090 fluorescence intensity (a.u.)
21,AGGACATAATTTTAATGGGGAAATTGGTTCCATACCATCTCGGAGTCACCTAGTGCAG,20500 fluorescence intensity (a.u.)
22,TAGTGATTTTGTGAAATCTCAAAATATATTGATCCAGCTTCGGAGTCACCTAGTGCAG,5030 fluorescence intensity (a.u.)
23,GTACATCAAATTTTAAGATAATCAAAACAAAGATGAACACCGGAGTCACCTAGTGCAG,4180 fluorescence intensity (a.u.)
24,ATCCTTAATCACATCACCATAAGATAGAGGTGATAAAGGACGGAGTCACCTAGTGCAG,3720 fluorescence intensity (a.u.)
25,GTGCATTATCGATCATAATTAGCAGGTGAGAGATATTTAACGGAGTCACCTAGTGCAG,4060 fluorescence intensity (a.u.)
26,TTCTCTGGATTAATTGACGGGTCGTCTGGCTGGATTAGTGCGGAGTCACCTAGTGCAG,27200 fluorescence intensity (a.u.)
27,ATTAATGGAATAAGTTCACTTTGGGTCCCTCTATTTGTAGCGGAGTCACCTAGTGCAG,12000 fluorescence intensity (a.u.)

row,Sequence,binding signal
1,CCGATCAAGATTGCCATTTCAACCTAATACAGTTAACTAGCGGAGTCACCTAGTGCAG,9120 fluorescence intensity (a.u.)
2,GAAATAATTAATCAATTAACGCTGATGTGTGAGCTGCGTACGGAGTCACCTAGTGCAG,53800 fluorescence intensity (a.u.)
3,TTTTATATTTAAATCATCATTCTGCATACTATTTAAATTTCGGAGTCACCTAGTGCAG,3200 fluorescence intensity (a.u.)
4,GAAACATCTTTAACTGGTAGGTGACATCACCAATAGTGAGCGGAGTCACCTAGTGCAG,3160 fluorescence intensity (a.u.)
5,GATTAAGTGATTAAGCAAGATTGTCGTCTGTTAAGCAAGACGGAGTCACCTAGTGCAG,16500 fluorescence intensity (a.u.)
6,ACTTAATTGCCGGCTATAAAATGAACTATTTGCCGGGAATCGGAGTCACCTAGTGCAG,26800 fluorescence intensity (a.u.)
7,GACTAATTAGTCTCAAAAGATTTGTCTCGCGATTTTCATACGGAGTCACCTAGTGCAG,28800 fluorescence intensity (a.u.)
8,TCAACAGATTGGCACGCGTACGCACACTTCAAATGTTAATCGGAGTCACCTAGTGCAG,12300 fluorescence intensity (a.u.)
9,GCCCTTAATAGAATTATGCAAGACAAGACCACGATTGTAGCGGAGTCACCTAGTGCAG,11300 fluorescence intensity (a.u.)
10,ATAATTGGCATAGTATATTCTAGGCCCTTGAGGAAACTCCCGGAGTCACCTAGTGCAG,13600 fluorescence intensity (a.u.)
11,TTTAAGATAAATTAAACTCTAGAAATAGATACATTATCGGCGGAGTCACCTAGTGCAG,3360 fluorescence intensity (a.u.)
12,TCATCGGCCGCCGCTGTGATTGGGATGGTTGACGGGAAGGCGGAGTCACCTAGTGCAG,4780 fluorescence intensity (a.u.)
13,TCTCTTACTCTTGTTGATTGACACCGGTCATCAGTAGTTCCGGAGTCACCTAGTGCAG,43200 fluorescence intensity (a.u.)
14,ATTGTAACTACTTCATAATTGGGATATTGATACCTTCCATCGGAGTCACCTAGTGCAG,14300 fluorescence intensity (a.u.)
15,ATACTTGACAGGTTTTATGCATATAAGAAAATCTGTTTAACGGAGTCACCTAGTGCAG,7520 fluorescence intensity (a.u.)
16,CACATGGCCTTGATTAGCGCTGAGGTTATAGTAGGTTAGACGGAGTCACCTAGTGCAG,5980 fluorescence intensity (a.u.)
17,GCTGTTAAAGTTGATCTTAATTGACATATAAAATCGACCCCGGAGTCACCTAGTGCAG,17600 fluorescence intensity (a.u.)
18,TTTGCTCTCATCACACATTCAATCACTCCATAAATTTTGACGGAGTCACCTAGTGCAG,10700 fluorescence intensity (a.u.)
19,CCCAATGTAATGTGTGAATATATTGACAATAGGCTTCTATCGGAGTCACCTAGTGCAG,4220 fluorescence intensity (a.u.)
20,AATCCAATCCTGGCAAATTTTAGCTCCCATTAACGCTCAGCGGAGTCACCTAGTGCAG,3740 fluorescence intensity (a.u.)
21,AAACCAATCATCACCTCTTCTTCTTGGGGTGTTCTTGACTCGGAGTCACCTAGTGCAG,21300 fluorescence intensity (a.u.)
22,GTTCAAATTATTTGACTTGTGTTAACCACAAATGTTACGCCGGAGTCACCTAGTGCAG,16000 fluorescence intensity (a.u.)
23,ACTATAATTAATGGATCCAGTAATAATATTTCTATAGTGTCGGAGTCACCTAGTGCAG,19000 fluorescence intensity (a.u.)
24,TCCAGAATTGTGCAATCAATGAAATCCGCCGACTAAATGACGGAGTCACCTAGTGCAG,6760 fluorescence intensity (a.u.)
25,TACCAAATTTTGTTAATGCCAAATTTTGGCATTACTAATTCGGAGTCACCTAGTGCAG,5730 fluorescence intensity (a.u.)
26,GTTGTCAAATGAGTCAATTAGATATTTCCAACCCACACTACGGAGTCACCTAGTGCAG,5950 fluorescence intensity (a.u.)
27,CCATTTCAAATTACTTATCATTCTAACAGCTTTTGTCCCACGGAGTCACCTAGTGCAG,4570 fluorescence intensity (a.u.)
